{
  "source": "PubChem BioAssay AID485294",
  "about": "(National Center for Advancing Translational Sciences (NCATS), 2010)",
  "note": "Screen size: about 370,000 compounds; about 150 (0.041%) were called active. Inconclusive results, whose numbers are uncertain, are shown with a selection of clear calls. Calls come from the whole dose curve; as a rule, active = well fitted inhibition curve with a large enough effect; inconclusive = small, poorly fitted or top-dose-only effect; inactive = flat fitted curve, though single readings scatter. No potency is given beside an inconclusive call; the fits are too rough. Potency is the fitted concentration of half-maximal effect; tags give direction and shape of the fitted curve.",
  "data": [
    {"target": "Beta-lactamase (Escherichia coli (strain K12)) (UniProt P00811)", "sequence (P00811 whole entry, looked up)": "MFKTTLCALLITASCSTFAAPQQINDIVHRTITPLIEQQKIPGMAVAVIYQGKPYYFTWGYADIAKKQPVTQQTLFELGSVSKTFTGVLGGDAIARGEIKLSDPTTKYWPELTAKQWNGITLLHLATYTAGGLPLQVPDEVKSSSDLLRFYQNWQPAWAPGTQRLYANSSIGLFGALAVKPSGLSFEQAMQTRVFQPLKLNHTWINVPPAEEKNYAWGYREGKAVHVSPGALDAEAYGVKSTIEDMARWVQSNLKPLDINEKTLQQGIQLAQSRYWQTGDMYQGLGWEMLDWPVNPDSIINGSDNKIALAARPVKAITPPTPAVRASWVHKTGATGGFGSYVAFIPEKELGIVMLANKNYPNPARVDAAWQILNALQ", "test": "qHTS Inhibitors of AmpC Beta-Lactamase (assay with detergent); note: nearly all actives have a fitted effect of over 25% in size;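 for activity change, negative = inhibition: 0% = no-compound wells and -100% = no-enzyme wells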", "details": "AmpC hydrolysis of nitrocefin, absorbance 480 nm, 0.01% Triton; activity change, negative = inhibition: at 114 µM (top of the series)", "procedure,_shortened": "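AmpC (5.3 nM in the dispensed reagent) in 20 mM phosphate pH 7.0 with 0.01% (detergent screen) or 0.0001% Triton X-100 was preincubated with compounds for 15 min at room temperature. Nitrocefin was then added from an 800 uM solution, and hydrolysis was followed at 480 nm.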", "values": [
      {"compound": "COCCn1c(SCC(=O)Nc2nc(C)c(Cl)cc2Cl)nc2ccccc21", "Potency": "inconclusive [inhibitor, full curve]"},
      {"compound": "Cc1cc(C)nc(Nc2nc3ccccc3[nH]2)n1", "Potency": "inconclusive [inhibitor, partial curve]"},
      {"compound": "CCCC1CCC(C(=O)n2nc(N)c3cc4ccc(OC)cc4nc32)CC1", "note": "(stereo unspecified)", "Potency": "inconclusive [inhibitor, single point]"},
      {"compound": "Cn1c(CNc2cccc(Cl)c2)nnc1SCC#N", "Potency": "inconclusive [inhibitor, single point]"},
      {"compound": "Cc1nc2ccccc2c(=O)n1-c1ccc(Cl)c(Cl)c1", "Potency": "inconclusive [inhibitor, full curve, poor fit]"},
      {"compound": "CCN1C(=O)[C@@H]2Cc3c([nH]c4ccccc34)C(c3ccc(OC)cc3)N2C1=S", "note": "(stereo partly specified)", "activity change, negative = inhibition": "inactive: 4.93%"},
      {"compound": "O=C(Cc1ncn[nH]1)NCCc1ccccc1", "Potency": "inconclusive [inhibitor, partial curve, poor fit]"},
      {"compound": "CC(C)(C)C1C/C(=C/c2ccco2)C(=O)/C(=C/c2ccco2)C1", "note": "(stereo unspecified)", "Potency": "inconclusive [inhibitor, full curve, poor fit]"},
      {"compound": "Cn1cc(Cl)c(C(=O)Nc2cnn(Cc3ccc(F)cc3)c2)n1", "Potency": "inconclusive [inhibitor, partial curve]"},
      {"compound": "Nc1nnc(SCCOc2ccccc2)s1", "activity change, negative = inhibition": "inactive: -2.73%"},
      {"compound": "C=CCNc1nc2c(c(=O)n(C)c(=O)n2C)n1CCCCCC", "Potency": "inconclusive [inhibitor, single point]"},
      {"compound": "O=C(CSc1nc2ccccc2c(=O)[nH]1)Nc1ccc(C(=O)O)cc1", "activity change, negative = inhibition": "inactive: 6.69%"},
      {"compound": "O=C(Nc1ccc2c(c1)OCCO2)c1ccc(Cl)cc1Cl", "Potency": "inconclusive [inhibitor, full curve, poor fit]"},
      {"compound": "O=C(/C=C\\Nc1ccc(Br)cc1)c1cccnc1", "Potency": "inconclusive [inhibitor, full curve, poor fit]"},
      {"compound": "O=C(Cn1nc(Cc2cccnc2)c2ccccc2c1=O)NCC1COc2ccccc2O1", "note": "(stereo unspecified)", "Potency": "inconclusive [inhibitor, full curve, poor fit]"},
      {"compound": "CC(=O)c1cccc(NC(=O)CN(C)S(=O)(=O)c2ccc3c(c2)CC(C)N3C(C)=O)c1", "note": "(stereo unspecified)", "Potency": "inconclusive [inhibitor, full curve]"},
      {"compound": "CC1CCCCC1NC(=O)CN(C)S(=O)(=O)c1cccc2nsnc12", "note": "(stereo unspecified)", "Potency": "inconclusive [inhibitor, full curve, poor fit]"},
      {"compound": "Cc1nn(Cc2ccccc2)c(Cl)c1C(=O)NCCc1ccc(Cl)cc1", "Potency": "inconclusive [inhibitor, full curve, poor fit]"},
      {"compound": "Cc1cc(NC(=O)C(C)SCC(=O)OCC(=O)N(Cc2ccccc2)C(C)(C)C)no1", "note": "(stereo unspecified)", "activity change, negative = inhibition": "inactive: -3.82%"},
      {"compound": "CCNC(=S)N(CCCN(CC)CC)Cc1cc2cc3c(cc2[nH]c1=O)OCO3", "Potency": "inconclusive [inhibitor, full curve, poor fit]"},
      {"compound": "O=C(CSc1nnc(NC(=O)c2ccccc2F)s1)NCc1ccc(F)cc1", "Potency": "inconclusive [inhibitor, full curve]"},
      {"compound": "COC(=O)CN1C(=O)[C@H]2[C@@H](c3ccc(C)o3)N3C(=O)CN(Cc4ccccn4)C(=O)[C@@]3(C)[C@H]2C1=O", "Potency": "inconclusive [inhibitor, partial curve, poor fit]"},
      {"compound": "CC/C(=C/c1ccccc1)c1cccc2[nH]c3c(OC)cccc3c12", "Potency": "inconclusive [inhibitor, full curve, poor fit]"},
      {"compound": "Cc1ccc(S(=O)(=O)NNC(=O)Nc2cccc3ccccc23)cc1", "Potency": "inconclusive [inhibitor, single point]"},
      {"compound": "Cc1onc(-c2c(F)cccc2Cl)c1C(=O)O/N=C(\\N)c1ccc([N+](=O)[O-])o1", "Potency": "inconclusive [inhibitor, single point]"},
      {"compound": "Cc1cc(OCC(=O)Nc2cccnc2)c2c(C)c(C)c(=O)oc2c1", "activity change, negative = inhibition": "inactive: -2.93%"},
      {"compound": "COc1cccc(CC(=O)OC(C)C(=O)NCc2ccc3c(c2)OCO3)c1", "note": "(stereo unspecified)", "Potency": "inconclusive [inhibitor, partial curve, poor fit]"},
      {"compound": "COc1ccc(NC(=O)CN(C)C(=O)CNC(=O)c2ccc3c(c2)OCO3)cc1", "Potency": "inconclusive [inhibitor, full curve, poor fit]"},
      {"compound": "CC(C)C(=O)Nc1nnc(NC(=S)Nc2ccccc2)s1", "Potency": "inconclusive [inhibitor, full curve, poor fit]"},
      {"compound": "CC1CCc2c(sc(NC(=O)Cn3cnc([N+](=O)[O-])n3)c2C(N)=O)C1", "note": "(stereo unspecified)", "Potency": "inconclusive [inhibitor, full curve, poor fit]"},
      {"compound": "COC(=O)C1(C)NC(c2cccs2)C2C(=O)N(c3ccccc3F)C(=O)C21", "note": "(stereo unspecified)", "Potency": "inconclusive [inhibitor, single point]"},
      {"compound": "CCOc1cc(C(=O)NCc2ccccc2)ccc1OCC(=O)N1CCOCC1", "Potency": "inconclusive [inhibitor, partial curve]"},
      {"compound": "O=C(N/N=C/c1ccc(-c2ccccc2[N+](=O)[O-])o1)[C@H]1C[C@@H]1c1ccccc1", "Potency": "inconclusive [inhibitor, single point]"},
      {"compound": "COCC(C)NC(=O)C1c2ccccc2Oc2ccccc21", "note": "(stereo unspecified)", "Potency": "inconclusive [inhibitor, full curve, poor fit]"},
      {"compound": "CCOC(=O)c1ccc(N2C(=O)c3n[nH]c(-c4cccs4)c3C2c2cccc(O)c2)cc1", "note": "(stereo unspecified)", "activity change, negative = inhibition": "inactive: 4.19%"},
      {"compound": "COc1cccc(CNC(=O)c2c[nH]n3c(=O)c(Cl)c(C)nc23)c1", "Potency": "inconclusive [inhibitor, full curve]"},
      {"compound": "CS(=O)(=O)c1nncn1-c1ccccc1", "Potency": "inconclusive [inhibitor, single point]"},
      {"compound": "COc1ccc(NC(=O)[C@@H]2[C@@H]3C(=O)N(C4CCCCC4)C(=O)[C@@H]3C3c4ccccc4C=CN32)cc1", "note": "(stereo partly specified)", "Potency": "inconclusive [inhibitor, partial curve, poor fit]"},
      {"compound": "COc1ccc(N(C)C(=O)c2oc(=O)c3ccccc3c2-c2ccc(C)cc2)c(OC)c1", "Potency": "inactive"},
      {"compound": "C=CCN(C(=O)c1csnn1)C(C(=O)NCc1ccc(F)cc1)c1ccc(F)cc1", "note": "(stereo unspecified)", "Potency": "inconclusive [inhibitor, single point]"},
      {"compound": "CCOC(=O)C1CCCN(CCC(=O)Nc2ccc(Br)c(C)c2)C1", "note": "(stereo unspecified)", "Potency": "inconclusive [inhibitor, partial curve, poor fit]"},
      {"compound": "COc1ccc(CCN2CC(C(=O)N(C)Cc3c(C)n[nH]c3C)CCC2=O)cc1", "note": "(stereo unspecified)", "Potency": "inconclusive [inhibitor, full curve, poor fit]"},
      {"compound": "Cc1cccc(NC(=O)Cn2nnc(-c3ccc(CN4CCCC4)cc3)n2)c1C", "Potency": "inconclusive [inhibitor, partial curve, poor fit]"},
      {"compound": "COc1ccc2nc(SCC(=O)Nc3ccc(S(=O)(=O)Nc4onc(C)c4C)cc3)[nH]c2c1", "activity change, negative = inhibition": "inactive: 3.5%"},
      {"compound": "Cn1nc(C(=O)Nc2c(-c3ccccc3)nc3sccn23)c2ccccc2c1=O", "Potency": "inconclusive [inhibitor, partial curve, poor fit]"},
      {"compound": "CC(C)=C(NC(=O)c1ccccc1)C(=O)NC(Cc1ccccc1)C(=O)O", "note": "(stereo unspecified)", "Potency": "inconclusive [inhibitor, full curve, poor fit]"},
      {"compound": "O=C(Nc1ccc(F)cc1F)c1ccc(-n2cnc3cccnc32)cc1", "activity change, negative = inhibition": "inactive: 20.8%"},
      {"compound": "CCOc1cc(C2C(C(=O)c3ccco3)=C(O)C(=O)N2CC2CCCO2)ccc1O", "note": "(stereo unspecified)", "Potency": "inconclusive [inhibitor, full curve, poor fit]"},
      {"compound": "Cc1ccccc1NC(=O)NCCCN1CCN(C2CCCCC2)CC1", "Potency": "inconclusive [inhibitor, single point]"},
      {"compound": "O=C(c1ccc2c(c1)OCO2)N1CCCc2ccccc21", "Potency": "inconclusive [inhibitor, full curve, poor fit]"},
      {"compound": "O=C(Nc1ccc(Cl)cc1Cl)C1=Cc2ccccc2OC1", "activity change, negative = inhibition": "inactive: -13.3%"},
      {"compound": "CNC(=O)c1cc2cc(OC)ccc2n1CCN(Cc1ccccc1)Cc1ccccc1", "Potency": "inconclusive [inhibitor, single point]"},
      {"compound": "CCC(C(=O)NCCCN1CCN(CCCNC(=O)C(CC)c2ccccc2)CC1)c1ccccc1", "note": "(stereo unspecified)", "Potency": "inconclusive [inhibitor, full curve, poor fit]"},
      {"compound": "COc1ccc2cc(C(=O)Nc3ccc(S(N)(=O)=O)cc3)sc(=O)c2c1OC", "Potency": "inconclusive [inhibitor, partial curve]"},
      {"compound": "CN(CC(=O)Nc1ccc(Cl)cc1)C(=O)c1ccc(-n2cncn2)c([N+](=O)[O-])c1", "Potency": "inconclusive [inhibitor, full curve, poor fit]"},
      {"compound": "N#CCCN(C(=O)COC(=O)c1cccc(S(=O)(=O)Nc2ccc([N+](=O)[O-])cc2)c1)c1ccccc1", "Potency": "inconclusive [inhibitor, single point]"},
      {"compound": "CN(c1ccccc1)c1ccc(/C=C(\\C#N)c2nnc3n2CCCCC3)cc1[N+](=O)[O-]", "Potency": "inconclusive [inhibitor, partial curve]"},
      {"compound": "Cc1ccc(S(=O)(=O)N2CCCN(S(=O)(=O)c3ccc(C)cc3)CC2)cc1", "Potency": "inconclusive [inhibitor, single point]"},
      {"compound": "COc1ccc(-c2cc(C(F)(F)F)nc(SCCC(=O)Nc3ccc(F)cc3F)n2)cc1", "activity change, negative = inhibition": "inactive: 1.8%"},
      {"compound": "CCCCCCC(=O)N(O)C1CC(=O)N(c2ccccc2)C1=O", "note": "(stereo unspecified)", "Potency": "inconclusive [inhibitor, partial curve]"},
      {"compound": "O=C(c1cc(Sc2cccc(Cl)c2)nc2ccccc12)N1CCN(c2ccccn2)CC1", "activity change, negative = inhibition": "inactive: -4.34%"}
    ]}
  ]
}
